From PubChem BioAssay (NCATS)
Values joined by “and” are separate entries in the source; they are usually repeats but may differ in a detail not shown here. Equal entries are not always repeated. Inconclusive results, whose numbers are uncertain, are shown with a selection of clear calls. A potency beside an inconclusive call is a rough fit, not a confirmed value. Active and inactive are the calls of the source. Calls follow the shape of the dose curve; as a rule, active = well fitted inhibition curve with a large enough effect; inconclusive = small, poorly fitted or top-dose-only effect; inactive = no such curve, though single readings can be large or run the other way.

assay: Primary qHTS for small molecule stabilizers of the endoplasmic reticulum resident proteome: Secreted ER Calcium Modulated Protein (SERCaMP) assay (AID 1508630); settings: SH-SY5Y GLuc-SERCaMP (Gaussia luciferase released on ER calcium loss) secretion, thapsigargin, luminescence; activity change, negative = inhibition: at 38.4 µM (top of the series) unless noted
Summary of the method: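 GLuc-SERCaMP-expressing SH-SY5Y cells, pretreated 16 h with compound, are challenged with thapsigargin to empty ER calcium stores; after 4 h, coelenterazine is added directly to the medium and luminescence is imaged.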
% is scaled to controls: 0 for no effect and ±100 for the full control effect; potency is read from the fitted curve at half-maximal effect; tags tell the direction and shape of the fitted curve.

SMILES | Potency | activity change, negative = inhibition
c1ccc(C(NCCNC(c2ccccc2)c2ccccc2)c2ccccc2)cc1 | inconclusive: 31.6 µM [inhibitor, single point] | –
CC(C)(C)Cn1c(N)nc2ccc(-c3[nH]c(C(C)(C)C)nc3-c3ccc(F)cc3)nc21 | inactive | –
O=C(CCc1ccc(O)cc1)c1c(O)cc(O)cc1O[C@@H]1O[C@H](CO)[C@H](O)[C@H](O)[C@H]1O | inactive | –
CN1Cc2cc(C(=O)N3CCC(C4CCNCC4)CC3)ccc2NC(CC(=O)O)C1=O (stereo unspecified) | inconclusive: 2.51 µM [inhibitor, full curve, poor fit] | –
CCOC1OC(=O)C[C@H]1NC(=O)[C@@H]1CCCN1C(=O)[C@@H](NC(=O)c1ccc(N)c(Cl)c1)C(C)(C)C (stereo partly specified) | inactive | –
Cc1cn([C@@H]2O[C@H](CO)[C@@H](O)[C@H]2F)c(=O)[nH]c1=O | inconclusive: 2.24 µM [inhibitor, full curve, poor fit] | –
CCNC(=O)c1noc(-c2cc(C(C)C)c(O)cc2O)c1-c1ccc(CN2CCOCC2)cc1 | inactive | –
NC(=O)Cc1cccc(C(=O)c2ccccc2)c1N | inconclusive: 11.2 µM [inhibitor, partial curve, poor fit] | –
O=S1(=O)c2cccc3cccc(c23)N1CCCN1CCN(c2ccc(F)cc2)CC1 | inactive | –
C=C[C@H]1CN2CC[C@H]1C[C@H]2[C@H](O)c1ccnc2ccc(OC)cc12 | inconclusive: 10 µM [inhibitor, single point] | –
CC(C)[C@H](CO)Nc1nc(Nc2ccc(C(=O)O)c(Cl)c2)c2ncn(C(C)C)c2n1 | inactive and inconclusive: 3.75 µM [inhibitor, full curve] | –
C[C@H]1C[C@H]2[C@@H]3CCC4=CC(=O)C=C[C@]4(C)[C@@]3(Cl)[C@@H](O)C[C@]2(C)[C@@]1(O)C(=O)CO | inactive | –
OC[C@]1(O)OC[C@@H](O)[C@H](O)[C@@H]1O | inconclusive: 2 µM [inhibitor, full curve] | –
CC(=O)N(C)C1(c2ccccc2)CCN(CCC[C@]2(c3ccc(Cl)c(Cl)c3)CCCN(C(=O)c3ccccc3)C2)CC1 | inactive | –
Nc1ccc(N2C(=O)c3ccccc3C2=O)c(Cl)c1 | inconclusive: 31.6 µM [inhibitor, partial curve] | –
OC[C@H]1O[C@@H](n2cnc3c(NC4CCCCC4)ncnc32)[C@H](O)[C@@H]1O | inactive | –

SMILES | Potency | activity change, negative = inhibition
CCCCCCCCCCCCCCCCCC(=O)O | inconclusive: 3.55 µM [inhibitor, full curve, poor fit] | –
CO[C@@]1(NC(=O)Cc2cccs2)C(=O)N2C(C(=O)O)=C(COC(N)=O)CS[C@@H]21 | – | inconclusive: -31% [inhibitor]
Clc1ccc2nsnc2c1NC1=NCCN1 | inconclusive: 28.2 µM [inhibitor, single point] and inactive | –
Cc1ccnc2c1NC(=O)c1cccnc1N2C1CC1 | inactive | –
COc1cc(Nc2ncc(F)c(Nc3ccc4c(n3)NC(=O)C(C)(C)O4)n2)cc(OC)c1OC | inactive | –
Nc1nc(F)nc2c1ncn2[C@@H]1O[C@H](COP(=O)(O)O)[C@@H](O)[C@H]1O | inconclusive: 3.35 µM [inhibitor, partial curve, poor fit] | –
CC(=O)Nc1ccc(O)cc1 | inconclusive: 28.2 µM [inhibitor, single point] | –
CC(=O)CC(c1ccccc1)c1c(O)c2ccccc2oc1=O (stereo unspecified) | inactive | –
COC(=O)C1=CO[C@@H](O)[C@@H]2C(CO)=CC[C@@H]12 | inconclusive: 0.0019 µM [inhibitor, full curve, poor fit] | –
C[C@H](NC(=O)C(=O)Nc1ccccc1C(C)(C)C)C(=O)N[C@@H](CC(=O)O)C(=O)COc1c(F)c(F)cc(F)c1F | inconclusive: 26.6 µM [inhibitor, partial curve, poor fit] | –
Cc1cccc(C)c1NC(=O)c1ccccc1C(=O)O | inconclusive: 11.2 µM [inhibitor, full curve] | –
c1ccc2sc(SSc3nc4ccccc4s3)nc2c1 | inactive | –
COC(=O)C(N)Cc1ccc(Cl)cc1 (stereo unspecified) | inactive | –
O=C1NC(=O)C(=Cc2ccc(-c3ccc(F)cc3O)o2)S1 | inactive | –
CN1CCC[C@@H]1Cc1c[nH]c2ccc(CCS(=O)(=O)c3ccccc3)cc12 | inconclusive: 28.2 µM [inhibitor, single point] | –
